Each structure is given as a SMILES string. The list shows a part of the results.

The test has as its system T1, C. trachomatis L2/434/Bu expressing GFP (CTL2-GFP).
T1 construct: L2/434/Bu GFP intracellular growth in HeLa cells
On the set-up: species or system HeLa; C. trachomatis total inclusion area by high-content imaging, normalised to DMSO. As to conditions: total inclusion area; 28.5 h, 10 µM; inhibitor. The procedure, abridged: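 After bulk GFP and resorufin fluorescence reads, cells were fixed, stained with Hoechst and imaged by high-content microscopy. Inclusion area and number (GFP) stood in for chlamydial growth, nuclei count (Hoechst) for host cell viability. MICs were derived as for the bulk readout.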
On to `c1ccc(SCCCN2CCNCC2)cc1` [CBK266067G], for which the “% of control remaining” value is given as 91.4014. The value for `CCOCC1CCCN1C(=O)Nc1ccc2sc(C(=O)N(C)C)cc2c1` (centres unmarked) [CBK306601] was 77.625; that for `O=C(NCCc1ccccc1Cl)C1(Cc2ccc(-c3cccnc3)cc2)CCOCC1` [CBK285590] was 94.8399.

As for `Cc1cc(C(=O)N2CCN(C)CC2)ccc1-c1cnc(N)c(-c2ccc(O)cc2)n1` [CBK126749], the “% of control remaining” value stood at 75.8409. Take `CC(C)[C@H](CO)Nc1nccnc1-c1ccco1` [CBK037390]: the “% of control remaining” value worked out at 97.2487. For the compound `NC(=O)CN1CC2(CCN(CC3COc4ccccc4O3)CC2)c2ccccc21` (centres unmarked) [CBK143960], the “% of control remaining” value was 102.402.

In the case of `CC(C)c1cccc(-n2cc(O)c(C(=O)NCCC(=O)N(C)C)n2)c1` [CBK305234], the “% of control remaining” value is 77.7709. Take `N#Cc1c(O)nsc1Nc1ccc(Cl)cc1` [CBK009446]: the “% of control remaining” value was determined as 115.059. The value for `Cc1cc(Br)cc(C)c1NC(=O)CSc1nnc(COc2ccccc2Cl)o1` [CBK264968] was 105.872; that for `OCC(O)CN1CCc2ccccc21` (centres unmarked) [CBK260896] was 83.1593. For the compound `CCOc1ccc2cc(C3CC(c4ccc(C)cc4)=NN3C(=O)CCC(=O)O)c(Cl)nc2c1` (centres unmarked) [CBK297508], the “% of control remaining” value was determined as 90.2004. For `O=C(c1ccncc1)n1nc(NCc2ccccc2)nc1NCc1ccccc1` [CBK269069], the “% of control remaining” value was found to be 97.69. As to `O=c1c(N2CCCNCC2)nccn1CCOc1ccc(Br)cc1` [CBK028613T], the “% of control remaining” value is on record as 73.7532. The same measure for `CC(C)(C)c1csc(Nc2nc3cc4c(cc3s2)OCO4)n1` [CBK287491]: 79.1713. The same measure for `COc1ccc(Cn2c(C)nc3ccccc32)cc1` [CBK201156]: 44.8922; for `O=C(NCC1(c2ccccc2Cl)CC1)c1ccc(=O)n(CC(=O)N2CCCCC2)c1` [CBK286077]: 115.881; for `O=C(CN1C(=O)c2ccccc2C1=O)NCC1COc2ccccc2O1` (centres unmarked) [CBK222526]: 107.447. The same measure for `Cc1c(Cl)cccc1S(=O)(=O)N1CCCN(c2nc3ccc(Cl)cc3s2)CC1` [CBK014131]: 95.2857. On to `O=C(Nc1ccccc1)c1onc2c1CCCC2` [CBK058703], for which the “% of control remaining” value was 63.5842. `OC1(c2ccc(F)cc2)CC2CCC(C1)N2` (centres unmarked) [CBK281947]: the “% of control remaining” value came out at 112.883. The value for `O=[N+]([O-])c1cc(C(F)(F)F)ccc1NCCNC(=S)Nc1ccc(Cl)cc1` [CBK263578] was 73.471; that for `COc1ccccc1C(=O)N1CCC(Cc2ccccc2-c2ccccc2)(C(N)=O)CC1` [CBK285739] was 113.305; that for `CC(=O)Nc1ccc(-c2cccc(COC3CCN(C(=O)Cc4ccc(C#N)cc4)CC3)c2)cc1` [CBK149495] was 96.7871.

Take `Cc1nc(C)n(CC2CCCN(CC(=O)NCc3ccccn3)C2)n1` (centres unmarked) [CBK305291]: the “% of control remaining” value stood at 72.2679. Take `Cc1cccc(OCc2nnc(SCC(=O)NC3CCCCC3)o2)c1` [CBK264652]: the “% of control remaining” value is 116.917.

Consider `Cc1nc(-c2ccccc2)cc([C@H]2CN3CC[C@H]2C[C@@H]3CNC(=O)NC(C)C)n1` [CBK289126], for which the “% of control remaining” value was 105.699. With `Cc1ccc(F)cc1C(=O)NCC1CCN(c2cnn(C)c(=O)c2)C1` (centres unmarked) [CBK307235], the “% of control remaining” value amounted to 88.3689. The same measure for `Cc1cccc(C(=O)NCCCNC(=O)c2ccncc2)c1` [CBK269572]: 84.3151. For the compound `CCN(CC(C)C#N)C(=O)c1nn(-c2ccccc2)c(C)cc1=O` (centres unmarked) [CBK304925], the “% of control remaining” value is 87.5546. The same measure for `CCOC(=O)C1=NN(C)c2cnn(Cc3ccc(Cl)cc3)c(=O)c2C1C(=O)CC(C)C` (centres unmarked) [CBK021389]: 111.988; for `O=C(Cc1ccc(F)cc1)NCCn1nc(-c2ccco2)ccc1=O` [CBK283706]: 91.5681; for `Cc1ccc(C(=O)N2CCN(S(=O)(=O)c3cccc([N+](=O)[O-])c3)CC2)cc1` [CBK266259]: 85.5337.

For the compound `CCCCN(C(C)=O)c1c(CC)nc2ccc(C(=O)NCCCn3ccnc3)cn12` [CBK145759], the “% of control remaining” value was 69.875.

`CC(C)(CO)CNc1nc(-c2ccc(F)cc2)cnc1N` [CBK063589]: the “% of control remaining” value is given as 110.163. The same measure for `COc1ccc(OC)c(/N=C2\CC(=O)CC(C)(C)C2)c1` [CBK020541]: 76.9914; for `Cn1cc(C(=O)O)c(NC(=O)c2ccccc2Cl)n1` [CBK000353]: 97.702; for `CC(NCC(=O)NC1(C#N)CCCCC1)C(C)n1cccn1` (centres unmarked) [CBK305129]: 123.633. The value for `O=C1CN(C(=O)NCc2cccc(C(F)(F)F)c2)CCN1` [CBK155850] was 99.2591. Turning to `Cc1nc(CN2[C@H]3CCCCC(=O)N[C@@]3(C)C[C@H]2c2cccc(C(F)(F)F)c2)cs1` [CBK285701], the “% of control remaining” value was 123.649. Consider `COc1ccc(C(=O)NCCCN(C)C)cc1Nc1cncc(-c2ccc(O)cc2)n1` [CBK126938T], for which the “% of control remaining” value is 83.8223.

For `O=C(Nc1ccccc1)N1C[C@@H]2C[C@H](C1)c1c(-c3cccnc3)ccc(=O)n1C2` [CBK289193], the “% of control remaining” value was 92.1519.

For the compound `Cc1nn(C)c(N2CCNCC2)c1NC(=O)c1cnccn1` [CBK050308T], the “% of control remaining” value turned out to be 94.055.

`CCS(=O)(=O)N1CCN(Cc2ccc3c(c2)OCO3)CC1` [CBK074545]: the “% of control remaining” value is 110.766.

For the compound `O=C(O)CCC(=O)N(Cc1ccco1)C1CC(=O)N(c2ccc(F)cc2)C1=O` (centres unmarked) [CBK287059], the “% of control remaining” value amounted to 83.735. Turning to `CCCCCC(=O)Nc1ccc(C(=O)Cn2nc(C(=O)O)c3ccccc3c2=O)cc1` [CBK295628], the “% of control remaining” value is given as 96.2801. With `COc1ccccc1NS(=O)(=O)c1ccc(C)c(C(=O)NCC(c2ccco2)N2CCCCC2)c1` (centres unmarked) [CBK296669], the “% of control remaining” value is listed as 86.337. The same measure for `Cc1cc(C)c(S(=O)(=O)N2CCC(C(=O)NNC(=S)NC3CCCC3)CC2)c(C)c1` [CBK266844]: 102.682; for `O=C(NCc1cccnc1)c1ncoc1-c1cccc(Cl)c1` [CBK282403]: 101.445; for `O=C1CCC[C@]2(CN(Cc3ccccc3)C[C@H]2c2cccnc2)N1` [CBK283349]: 111.219. The value for `CCN(CC)CCNc1nc2cc(Cl)ccc2[nH]1` [CBK262453] was 111.071. Turning to `O=S(=O)(Nc1nnn[nH]1)c1ccc(-c2ccon2)s1` [CBK062391], the “% of control remaining” value was determined as 96.6505. Consider `CN(CCOc1ccc(Cl)cc1)C(=O)COc1cc2ccccc2cc1C(=O)O` [CBK296720], for which the “% of control remaining” value is 104.792. For the compound `Cc1noc2nc(-c3cccnc3)cc(C(=O)O)c12` [CBK288207], the “% of control remaining” value worked out at 72.6052.

On to `Cc1ccc(S(=O)(=O)Nc2nc(C)c(C(=O)O)s2)cc1[N+](=O)[O-]` [CBK045565], for which the “% of control remaining” value is 93.2981.

Regarding `Nc1nonc1C(=O)NCCNC(=O)c1ccco1` [CBK058480], the “% of control remaining” value is recorded as 106.519. The same measure for `O=C1Nc2ccc(-c3ccc(Cl)cc3)cc2C(=O)N2CCN(C(=O)CO)C[C@H]12` [CBK289594]: 89.041; for `O=C(O)COc1ccc(NC(=O)C2CCCO2)cc1` (centres unmarked) [CBK270063]: 89.6832. Consider `COCCC(=O)NCc1ccc(OC2CCNCC2)cc1` [CBK024494T], for which the “% of control remaining” value amounted to 118.761.

On to `Cn1ccnc1CN1C(=O)CO[C@H]2CN(c3ncccn3)C[C@H]21` [CBK289704], for which the “% of control remaining” value is recorded as 40.3257. `Cc1nn(C(C)C)c(C)c1CN1CCN(C2CCCCC2)C(=O)C1` [CBK282562]: the “% of control remaining” value worked out at 97.8595.

Regarding `COc1ccc(C)cc1S(=O)(=O)N(C)CC(=O)Nc1cccc(Cl)c1` [CBK269493], the “% of control remaining” value is reported as 92.0923. For the compound `O=C(c1cccnc1)C1CCN(C(=O)Cc2ccccc2F)CC1` [CBK283814], the “% of control remaining” value is on record as 79.1061.

Take `COc1cc(CN2CCC(N3CCCCC3)CC2)c([N+](=O)[O-])cc1OC` [CBK261858]: the “% of control remaining” value was found to be 95.4617. Turning to `Cc1ccccc1CC(=O)NCC(c1ccccc1Cl)N1CCOCC1` (centres unmarked) [CBK304564], the “% of control remaining” value came to 48.4187. Consider `CC1CCC2(CC1)NC(=O)N(Cc1csc(-c3ccco3)n1)C2=O` (centres unmarked) [CBK304279], for which the “% of control remaining” value amounted to 37.6543.

`C=C(C)Cn1c(SCC(C)C)nnc1-c1cccs1` [CBK200086]: the “% of control remaining” value is reported as 89.0442. For the compound `CCN(CC)C(=O)C1CCCN(C(=O)Nc2cccnc2)C1` (centres unmarked) [CBK156157], the “% of control remaining” value was found to be 89.3142.

On to `Cn1nc(C2CC2)cc1C(=O)NCCCN1CCCc2ccccc21` [CBK282476], for which the “% of control remaining” value worked out at 88.4491. The value for `CN1CCN(C)C(COc2nccc(C(F)(F)F)n2)C1` (centres unmarked) [CBK113298] was 95.0186; that for `COc1ccc([C@@]23CC[C@@H](NC(=O)Nc4ccc(F)c(F)c4)C[C@@H]2N(C(=O)CN)CC3)cc1OC` [CBK051679] was 67.2003; that for `CCCC(=O)N1CCC(Cc2ccc(-c3cccc(C)c3)cc2)(C(=O)NC)CC1` [CBK285786] was 108.517. On to `O=C(Cn1nc(C(F)(F)F)c2cccn2c1=O)NC1CCCC1` [CBK282867], for which the “% of control remaining” value is listed as 73.6402. The value for `O=C(CCn1c(C(F)F)cc2cccnc21)NC1CCCC1` [CBK285063] was 95.9108. With `O=C(COc1ccc(Cl)cc1)NNC(=O)Cc1cccc2ccccc12` [CBK261693], the “% of control remaining” value came to 104.604.

With `O=C(c1cc(S(=O)(=O)N2CCOCC2)ccc1Cl)N1CCCCC1` [CBK304377], the “% of control remaining” value was 35.8624. The same measure for `CCOC(=O)C(C)n1ncc2c3sc(C)cc3n(C)c2c1=O` (centres unmarked) [CBK284157]: 82.2179; for `O=C(NC1CCCN(CC(F)(F)F)C1=O)c1cnc(-c2ccncc2)s1` (centres unmarked) [CBK306175]: 37.5348. The same measure for `Cc1nn(-c2ccccn2)c2c1-c1oncc1CC2` [CBK287280]: 110.35; for `C=CCn1c(Cc2csc(NC(=O)c3ccc(S(C)(=O)=O)cc3)n2)n[nH]c1=S` [CBK295340]: 111.614. For the compound `Cc1ccc(NS(=O)(=O)c2ccc(OC(F)(F)F)cc2)nc1` [CBK043577], the “% of control remaining” value is 91.1276.

These data come from article PMC12040169 (PLOS Biology, 2025).
